# Measurements taken from the supplement of paper PMC8728848.
# The list shows a part of the results.
# Tests used:
# Experiment in all cases: glycan array binding signal (z-score within array); higher = stronger binding
# Settings in all cases: glycan notation: IUPAC condensed, linker removed
# [1] = target: Gal(b1-4)GlcNAc(b1-6)Gal(b1-4)GlcNAc
# Procedure, shortened: (§1)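 From the Consortium for Functional Glycomics database, 3228 arrays were curated, keeping only those whose protein sequence was available. Binding is given as a within-array Z-score averaged across arrays sharing a protein sequence and across linkers. Negative Z-scores can be read as non-binding.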
# [2] = target: Gal(b1-4)GlcNAc(b1-6)Gal(b1-4)GlcNAc(b1-6)GalNAc
# Procedure, shortened: as §1
# [3] = target: Gal(b1-4)GlcNAc(b1-6)GalNAc
# Procedure, shortened: as §1
# [4] = target: Gal(b1-4)GlcNAc(b1-6)[Gal(b1-3)]GalNAc
# Procedure, shortened: as §1
# Gal3S(b1-3)GalNAc = target: Gal3S(b1-3)GalNAc
# Procedure, shortened: as §1
# Gal3S(b1-3)GlcNAc = target: Gal3S(b1-3)GlcNAc
# Procedure, shortened: as §1
# [5] = target: Gal3S(b1-3)[Fuc(a1-4)]GlcNAc
# Procedure, shortened: as §1
# Gal3S(b1-4)Glc = target: Gal3S(b1-4)Glc
# Procedure, shortened: as §1
# Gal3S(b1-4)Glc6S = target: Gal3S(b1-4)Glc6S
# Procedure, shortened: as §1
# Gal3S(b1-4)GlcNAc = target: Gal3S(b1-4)GlcNAc
# Procedure, shortened: as §1
# Gal3S(b1-4)GlcNAc6S = target: Gal3S(b1-4)GlcNAc6S
# Procedure, shortened: as §1
# [6] = target: Gal3S(b1-4)[Fuc(a1-3)]Glc
# Procedure, shortened: as §1
# Gal3S4S(b1-4)GlcNAc = target: Gal3S4S(b1-4)GlcNAc
# Procedure, shortened: as §1
# Gal3S6S(b1-4)GlcNAc = target: Gal3S6S(b1-4)GlcNAc
# Procedure, shortened: as §1
# Gal3S6S(b1-4)GlcNAc6S = target: Gal3S6S(b1-4)GlcNAc6S
# Procedure, shortened: as §1
# Gal4S(b1-4)GlcNAc = target: Gal4S(b1-4)GlcNAc
# Procedure, shortened: as §1
# Gal4S6S(b1-4)GlcNAc = target: Gal4S6S(b1-4)GlcNAc
# Procedure, shortened: as §1
# Gal6S(b1-4)Glc = target: Gal6S(b1-4)Glc
# Procedure, shortened: as §1
# Gal6S(b1-4)Glc6S = target: Gal6S(b1-4)Glc6S
# Procedure, shortened: as §1
# Gal6S(b1-4)GlcNAc = target: Gal6S(b1-4)GlcNAc
# Procedure, shortened: as §1
# Gal6S(b1-4)GlcNAc6S = target: Gal6S(b1-4)GlcNAc6S
# Procedure, shortened: as §1
# GalNAc(a1-3)Gal = target: GalNAc(a1-3)Gal
# Procedure, shortened: as §1
# GalNAc(a1-3)GalNAc = target: GalNAc(a1-3)GalNAc
# Procedure, shortened: as §1
# GalNAc(b1-3)Gal = target: GalNAc(b1-3)Gal
# Procedure, shortened: as §1
# [7] = target: GalNAc(b1-3)Gal(a1-4)Gal(b1-4)GlcNAc
# Procedure, shortened: as §1
# [8] = target: GalNAc(b1-3)Gal(a1-4)Gal(b1-4)GlcNAc(b1-3)Gal(b1-4)Glc
# Procedure, shortened: as §1
# GalNAc(b1-3)GalNAc = target: GalNAc(b1-3)GalNAc
# Procedure, shortened: as §1
# GalNAc(b1-4)GlcNAc = target: GalNAc(b1-4)GlcNAc
# Procedure, shortened: as §1
# [9] = target: GalNAc(b1-4)GlcNAc(b1-2)Man(a1-3)[GalNAc(b1-4)GlcNAc(b1-2)Man(a1-6)]Man(b1-4)GlcNAc(b1-4)GlcNAc
# Procedure, shortened: as §1
# Glc(a1-4)Glc = target: Glc(a1-4)Glc
# Procedure, shortened: as §1
# Glc(a1-6)Glc(a1-6)Glc = target: Glc(a1-6)Glc(a1-6)Glc
# Procedure, shortened: as §1
# Glc(b1-4)Glc = target: Glc(b1-4)Glc
# Procedure, shortened: as §1
# Glc(b1-6)Glc = target: Glc(b1-6)Glc
# Procedure, shortened: as §1
# GlcA(b1-3)Gal = target: GlcA(b1-3)Gal
# Procedure, shortened: as §1
# GlcA(b1-3)GlcNAc = target: GlcA(b1-3)GlcNAc
# Procedure, shortened: as §1
# GlcA(b1-6)Gal = target: GlcA(b1-6)Gal
# Procedure, shortened: as §1
# [10] = target: GlcNAc(a1-3)Gal(b1-4)GlcNAc
# Procedure, shortened: as §1
# [11] = target: GlcNAc(a1-4)Gal(b1-3)GlcNAc
# Procedure, shortened: as §1
# [12] = target: GlcNAc(a1-4)Gal(b1-4)GalNAc
# Procedure, shortened: as §1
# [13] = target: GlcNAc(a1-4)Gal(b1-4)GlcNAc
# Procedure, shortened: as §1
# [14] = target: GlcNAc(a1-4)Gal(b1-4)GlcNAc(b1-3)Gal(b1-4)Glc
# Procedure, shortened: as §1
# [15] = target: GlcNAc(a1-4)Gal(b1-4)GlcNAc(b1-3)Gal(b1-4)GlcNAc
# Procedure, shortened: as §1
# [16] = target: GlcNAc(a1-4)Gal(b1-4)GlcNAc(b1-3)Gal(b1-4)GlcNAc(b1-3)Gal(b1-4)GlcNAc
# Procedure, shortened: as §1
# [17] = target: GlcNAc(a1-4)Gal(b1-4)GlcNAc(b1-3)Gal(b1-4)[Fuc(a1-3)]GlcNAc(b1-3)Gal(b1-4)[Fuc(a1-3)]GlcNAc
# Procedure, shortened: as §1
# [18] = target: GlcNAc(a1-6)Gal(b1-4)GlcNAc
# Procedure, shortened: as §1
binder,measurement,setting,value
"GIINTLQKYYCRVRGGRCAVLSCLPKEEQIGKCSTRGRKCCRRKK [Beta-Defensin 3 (Homo sapiens), P81534]",glycan array binding signal (z-score),[1],-0.485
same,glycan array binding signal (z-score),[2],-0.145
same,glycan array binding signal (z-score),[3],-0.537
same,glycan array binding signal (z-score),[4],-0.302
same,glycan array binding signal (z-score),Gal3S(b1-3)GalNAc,0.073
same,glycan array binding signal (z-score),Gal3S(b1-3)GlcNAc,0.98
same,glycan array binding signal (z-score),[5],0.072
same,glycan array binding signal (z-score),Gal3S(b1-4)Glc,0.012
same,glycan array binding signal (z-score),Gal3S(b1-4)Glc6S,4.37
same,glycan array binding signal (z-score),Gal3S(b1-4)GlcNAc,0.025
same,glycan array binding signal (z-score),Gal3S(b1-4)GlcNAc6S,0.696
same,glycan array binding signal (z-score),[6],0.062
same,glycan array binding signal (z-score),Gal3S4S(b1-4)GlcNAc,4.31
same,glycan array binding signal (z-score),Gal3S6S(b1-4)GlcNAc,0.35
same,glycan array binding signal (z-score),Gal3S6S(b1-4)GlcNAc6S,3.11
same,glycan array binding signal (z-score),Gal4S(b1-4)GlcNAc,0.126
same,glycan array binding signal (z-score),Gal4S6S(b1-4)GlcNAc,1.24
same,glycan array binding signal (z-score),Gal6S(b1-4)Glc,1.46
same,glycan array binding signal (z-score),Gal6S(b1-4)Glc6S,2.6
same,glycan array binding signal (z-score),Gal6S(b1-4)GlcNAc,0.19
same,glycan array binding signal (z-score),Gal6S(b1-4)GlcNAc6S,-0.794
same,glycan array binding signal (z-score),GalNAc(a1-3)Gal,-0.428
same,glycan array binding signal (z-score),GalNAc(a1-3)GalNAc,-0.477
same,glycan array binding signal (z-score),GalNAc(b1-3)Gal,-0.217
same,glycan array binding signal (z-score),[7],-0.35
same,glycan array binding signal (z-score),[8],0.457
same,glycan array binding signal (z-score),GalNAc(b1-3)GalNAc,-0.213
same,glycan array binding signal (z-score),GalNAc(b1-4)GlcNAc,-0.484
same,glycan array binding signal (z-score),[9],-0.501
same,glycan array binding signal (z-score),Glc(a1-4)Glc,0.053
same,glycan array binding signal (z-score),Glc(a1-6)Glc(a1-6)Glc,-0.18
same,glycan array binding signal (z-score),Glc(b1-4)Glc,0.443
same,glycan array binding signal (z-score),Glc(b1-6)Glc,-0.231
same,glycan array binding signal (z-score),GlcA(b1-3)Gal,1.72
same,glycan array binding signal (z-score),GlcA(b1-3)GlcNAc,1.66
same,glycan array binding signal (z-score),GlcA(b1-6)Gal,2.3
same,glycan array binding signal (z-score),[10],-0.579
same,glycan array binding signal (z-score),[11],1.21
same,glycan array binding signal (z-score),[12],0.954
same,glycan array binding signal (z-score),[13],-0.605
same,glycan array binding signal (z-score),[14],1.4
same,glycan array binding signal (z-score),[15],2.42
same,glycan array binding signal (z-score),[16],-0.574
same,glycan array binding signal (z-score),[17],2.84
same,glycan array binding signal (z-score),[18],-0.653
